Data taken from ChEMBL document CHEMBL1201862, “PubChem BioAssay data set” (2004).
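The compound was tested at five concentrations on cells cultured in 96-well plates, with a 48-hour exposure period. At the GI50, growth is halved.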 Activity calls are given as the source filed them. Cut-off read from the data, not from the text of the source: active = GI50 up to about 1.1 µM and inactive = higher.

system: NCI-H322M; assay: NCI tumour cell line growth inhibition, 48 h

Row | Compound | GI50
1 | CN(c1cn(C2CC[C@@H](CO)O2)c(=O)[nH]c1=O)C1CCCCC1 (stereo partly drawn) | inactive: > 100 µM
2 | CCN1CCC(O)(c2ccc(Cl)cc2)C(C(=O)c2ccc(Cl)cc2)C1 (stereo not drawn) | inactive: > 100 µM
3 | CN(C)CCCCN1c2ccccc2Sc2ccc(N=[N+]=[N-])cc21 | inactive: 8.89 µM
4 | CC(=O)Nc1ccc(CNc2cc(=O)[nH]c(=O)[nH]2)cc1 | inactive: > 100 µM
5 | N#Cc1c(-c2ccco2)c2c(n(C3OC(CO)C(O)C(O)C3O)c1=S)CCCC2 (stereo not drawn) | inactive: > 100 µM
6 | Cc1cc(O)nc(NN2C(Cl)C(=O)C2c2ccccc2O)n1 (stereo not drawn) | inactive: 3.75 µM
7 | NC(=O)[N+](=CC(=S)Nc1ccccc1Cl)C(N)=O | inactive: > 100 µM
8 | COc1ccc(/C=N/N=C(N)N)c(C(=O)O)c1OC | inactive: > 10 µM
9 | O=S(O)CCCCCSSSCCCCCS(=O)O | inactive: > 100 µM
10 | CC(C)(Br)C(=O)N1CCN(C(c2ccccc2)c2ccccc2)CC1 | inactive: 19 µM
11 | C=CN1C(=O)OC[C@@H]1c1ccccc1 | inactive: > 100 µM
12 | CC1C(=O)O[C@H]2C1CC[C@@]1(C)[C@H](O)CC[C@@]13C[C@]2(O)OO3 (stereo partly drawn) | inactive: > 100 µM
13 | CSCC(COC(C)=O)(CSC)c1ccncc1 | inactive: > 100 µM
14 | COc1cc(C(CN)N(C)C)cc(OC)c1OC (stereo not drawn) | inactive: > 100 µM
15 | C=CCCCC1SC2=C(CC)CCCN2C1=O (stereo not drawn) | inactive: > 100 µM
16 | CN1CC[C@]2(C)c3ccc(O)cc3CC3CCCC1C32C (stereo partly drawn) | inactive: > 100 µM
17 | CCN(CC)CCCC(C)Nc1ccnc(/C=C/c2ccc(Cl)cc2)c1 (stereo not drawn) | inactive: 2.31 µM
18 | Cc1ccc(C2=NN=C3C(c4ccccc4)=Nc4ccccc4N3C2)cc1 | inactive: 20.7 µM
19 | COC(C/C(=C/CO[Si](C(C)C)(C(C)C)C(C)C)C(=O)Nc1ccccc1I)OC | inactive: 48.4 µM
20 | O=C1CCCC/C1=C1\C(=O)Nc2cc(F)ccc21 | inactive: > 100 µM
21 | Cc1c(/C=N\NC(=S)N(C)CCN(C)C(=S)N/N=C\c2c(C)n(C)n(-c3ccccc3)c2=O)c(=O)n(-c2ccccc2)n1C | inactive: > 100 µM
22 | CCOC(=O)C1CCCCN1C(=O)OCc1ccccc1 (stereo not drawn) | inactive: > 100 µM
23 | O=c1c2c(c1=O)-c1ccccc1CN2 | inactive: > 100 µM
24 | O=C(c1ccc(Cl)cc1)N(C(=S)OCc1ccccn1)c1ccccc1 | inactive: > 100 µM
25 | N#C/C(=C\c1ccc(Cl)cc1)c1nc(-c2cc3ccccc3oc2=O)cs1 | inactive: 83.4 µM

Row | Compound | GI50
26 | COc1nc(N)nc2c1n(C)c[n+]2C | inactive: > 100 µM
27 | CCOC(=O)c1c2ccc(/C=C/C(=O)OC)ccc-2c(C(=O)OCC)c1N | inactive: 2.21 µM
28 | C=CCN1C(=O)CC1N(CC=C)S(=O)(=O)c1ccc(C)cc1 (stereo not drawn) | inactive: > 100 µM
29 | C=CCNC(=O)CN(CC(=O)O)C1CCCCC1N(CC(=O)O)CC(=O)O (stereo not drawn) | inactive: > 100 µM
30 | Cc1cn(C2CC(N/C(=N/C#N)NCC3OC(n4cnc5c(N)ncnc54)CC3O)C(CO)O2)c(=O)[nH]c1=O (stereo not drawn) | inactive: > 100 µM
31 | NC(=O)CCC(N=C(N)c1csc(C2OC(CO)C(O)C2O)n1)C(=O)O (stereo not drawn) | inactive: > 100 µM
32 | OCC1OC(n2nc(-c3ccccc3)nc2-c2cnccn2)C(O)C1O (stereo not drawn) | inactive: > 100 µM
33 | CCOP(=O)(OCC)C(N)c1ccc(Cl)cc1 (stereo not drawn) | inactive: > 100 µM
34 | O=C(NNC(=O)c1ccccc1SSc1ccccc1C(=O)NNC(=O)c1ccccc1S)c1ccccc1S | inactive: 32.5 µM
35 | Cn1c2ccccc2c(=O)c2ccc(Cl)cc21 | inactive: > 10 µM
36 | COC(=O)C1=C(C=O)C2C=CC1C2 (stereo not drawn) | inactive: > 100 µM
37 | CC(=O)/N=S(/NC(=O)c1ccc(C)cc1)C(Cl)(Cl)Cl (stereo not drawn) | inactive: > 100 µM
38 | COc1ccc(NC(=O)C(C#N)=C(SC)SC)cc1 | inactive: > 100 µM
39 | CCOC(=O)c1nc2ccc(Cl)cc2c2c1Cc1ccccc1-2 | inactive: > 100 µM
40 | COc1cc2c(c(OC)c1OC)-c1ccc(SC)c(=O)cc1C(NC=O)CC2 (stereo not drawn) | active: < 0.01 µM
41 | C=C1C(=O)CCC1C(=O)O (stereo not drawn) | inactive: > 100 µM
42 | CC(=O)OCC1OC(n2c(=S)n(-c3ccccc3)c(=O)c3cc(Br)ccc32)C(OC(C)=O)C1OC(C)=O (stereo not drawn) | inactive: > 100 µM
43 | CC(C)NC(C)C(C)c1ccccc1 (stereo not drawn) | inactive: > 100 µM
44 | CCSc1nc(=S)n(-c2ccccc2)c(C)c1C(C)=O | inactive: > 100 µM
45 | CCOC(=O)CC(NC(=O)c1nc[nH]c1/N=N/N(C)C)C(=O)OCC (stereo not drawn) | inactive: > 100 µM
46 | CCN(CC)CCNc1ccc2ncn3c4ccccc4c(=O)c1c23 | inactive: 2.95 µM
47 | COC(=O)N1CC2(CO)C3CC=C(C(=O)Nc4ccccc4Br)C2C1C3Br (stereo not drawn) | inactive: > 50 µM
48 | CSc1c(C(=O)Nc2ccc(C)cc2)c(N)n(N)c(=O)c1C#N | inactive: > 100 µM
49 | C=CCC(NCc1ccccc1)[C@H](OCc1ccccc1)[C@@H]1COC(C)(C)O1 (stereo partly drawn) | inactive: 66.1 µM
50 | O=C(N(O)c1ccccc1Cl)C(O)(c1ccccc1)c1ccccc1 | inactive: 85.1 µM

Row | Compound | GI50
51 | c1cc2cc3c4c5c(cc6ccc7cc8cc9c%10c8c8c7c6c5c8c5c%10c(c1C9N1CCOCCOCCOCCOCCOCC1)c2c45)C3 (stereo not drawn) | inactive: > 100 µM
52 | CS(=O)(=O)c1nc(-c2cc3c(c(S(C)(=O)=O)n2)CCC3)cc2c1CCCC2 | inactive: > 100 µM
53 | C=C1C(=O)OC2CC(C)C(/C=C/C(C)=O)=CCC12 (stereo not drawn) | inactive: > 100 µM
54 | O=C1NC(O)n2c(=O)[nH]c(=O)n21 (stereo not drawn) | inactive: > 100 µM
55 | COC(=O)[C@H](Cc1c[nH]c2ccccc12)NC(=O)OCC1OC(n2cc(C)c(=O)[nH]c2=O)CC1N=[N+]=[N-] (stereo partly drawn) | inactive: 30.2 µM
56 | O=C1N=C(c2ccccc2)O/C1=C\c1ccccc1 | inactive: > 100 µM
57 | CN(C)CCNCc1ccc2c(-c3ccccc3)nc3cc(Cl)c(Cl)cc3n12 | inactive: 8.55 µM
58 | CC(C)c1ccc(/C=C2/C=C(c3ccc4ccccc4c3)OC2=O)cc1 | inactive: > 100 µM
59 | CCC(=O)Nc1ccc(NCC(=O)Nc2ccc(OC)cc2)cc1 | inactive: 21.9 µM
60 | NS(=O)(=O)c1ccc(NC(=O)Cc2nc3ccccc3s2)cc1 | inactive: 16.4 µM
61 | CCOC(=O)N1CCN(c2nc(C)n(-c3ccccc3)c(=S)c2C#N)CC1 | inactive: > 64.1 µM
62 | CC1C=CC(=O)C(n2cc(F)c(=O)[nH]c2=O)O1 (stereo not drawn) | inactive: 18.6 µM
63 | N=C(N)NS(=O)(=O)c1ccc(NC(=O)c2cccc3cc4ccccc4nc23)cc1 | inactive: 40.2 µM
64 | CCOc1cc(/C=C2/C(C)=NN(c3cccc(Cl)c3)/C2=N/c2nc3ccccc3s2)ccc1O | inactive: 26.1 µM
65 | COc1ccc(Cc2cc(Cc3ccc(OC)cc3)cc(Cc3ccc(OC)cc3)c2)cc1 | inactive: > 100 µM
66 | Cn1c(-c2ccccc2)c2cc3nc4ccccc4nc3cc2c1-c1ccccc1 | inactive: 17.9 µM
67 | Cc1ccc2c(=O)c(-c3nnc(NC4CCCCC4)s3)c[nH]c2n1 | inactive: > 100 µM
68 | Fc1ccc(Oc2nc3ccccc3nc2-c2ccccc2)cc1 | inactive: > 100 µM
69 | CC(=O)Nc1c(C(=N)C#N)ncn1CCO | inactive: > 100 µM
70 | O=C(NC1(c2cc3ccccc3s2)CCCCC1)C1CCC1 | inactive: > 100 µM
71 | O=S(=O)(O)c1cccc2cccc(/N=N/c3c(O)ccc4ccccc34)c12 | inactive: > 100 µM
72 | O=C1CC(=O)NC(NN2C(=O)CSC2C(=O)c2ccco2)=N1 (stereo not drawn) | inactive: > 100 µM
73 | CN(C)CC[N+]1=Nc2cccc3cccc(c23)N1 | inactive: 54 µM
74 | COc1cccc(-c2cc(O)c3cc(Cl)cnc3n2)c1 | active: 0.728 µM
75 | O=C(/C=C/c1ccc(Br)cc1)c1ccc(NCc2nc3ccccc3[nH]2)cc1 | inactive: 16.6 µM

Row | Compound | GI50
76 | O=C(c1ccccc1Cl)n1oc2ccccc2c1=O | inactive: > 100 µM
77 | N#C/C(=C\c1ccc(O)c(O)c1)C(N)=O | inactive: 34.3 µM
78 | FC(F)(F)P1C2C=CC(CC2)C1(F)F (stereo not drawn) | inactive: > 100 µM
79 | CN(C)CCC(/C=C/c1ccccc1)=N\Nc1ccc(Cl)cc1Cl | inactive: 19.7 µM
80 | CCOC(=O)C(=CN1CCNC1=S)C(=O)OCC | inactive: > 100 µM
81 | CC1=CC(=O)CC2(C)CC[C@@H]3C[C@]12OC3(C)C (stereo partly drawn) | inactive: > 100 µM
82 | COC(=O)NN=C1C(C)(C)C(=O)C1(C)C | inactive: > 100 µM
83 | O=C1c2ccccc2C(C2c3ccccc3C(=O)c3cc(Br)ccc32)c2ccc(Br)cc21 (stereo not drawn) | inactive: > 100 µM
84 | CC(=O)/C(=C\c1ccc(Cl)c(Cl)c1)C(=O)C(C)CN(C)C (stereo not drawn) | inactive: 4.48 µM
85 | COc1ccc(CNC2=C(NC(C)=O)C(=O)c3ccccc3C2=O)cc1 | inactive: > 50 µM
86 | O=C1OC(c2ccc(Cl)cc2)=N/C1=C\c1ccccc1 | inactive: > 100 µM
87 | COC(=O)c1cc(C(=CCC[C@H]2CC[C@@]3(C)C(CCC4C3CC[C@@]3(C)C4CC[C@@H]3C(C)CCCC(C)C)C2)c2cc(Cl)c(OC(=O)c3ccccc3)c(C(=O)OC)c2)cc(Cl)c1OC(=O)c1ccccc1 (stereo partly drawn) | inactive: > 10 µM
88 | C1=C\SS/C=C\SS/1 | inactive: 61.2 µM
89 | CC1c2cc(c3c(c2O)CN([C@@H](C)C2CCCCC2)CO3)C(C)c2cc(c3c(c2O)CN([C@@H](C)C2CCCCC2)CO3)C(C)c2cc(c3c(c2O)CN([C@@H](C)C2CCCCC2)CO3)C(C)c2cc1c1c(c2O)CN([C@@H](C)C2CCCCC2)CO1 (stereo partly drawn) | inactive: 1.42 µM
90 | Cc1ccccc1NC(=N)Nc1ccccc1C | inactive: > 100 µM
91 | Cc1cccc(-c2nc3c(C(=O)NCCN(C)C)cccc3[nH]2)c1 | active: 0.984 µM
92 | c1ccc(COCC23CCN(Cc4ccccc4)C(CC(OCc4ccccc4)C2)S3)cc1 (stereo not drawn) | inactive: 36.7 µM
93 | O=C(/C=C\Nc1ccccc1O)C(Cl)(Cl)Cl | inactive: 68.9 µM
94 | CCN(CC)CCn1c(=O)c2cccnc2n2c3c(=O)n(C)c(=O)n(C)c3nc12 | inactive: > 100 µM
95 | CCCCCN(CCCCC)C(=O)[C@H](CCC(=O)O)NC(=O)c1cc2ccccc2[nH]1 | inactive: 44.5 µM
96 | COC(=O)/C(C#N)=C1\CCC(O)N1 (stereo not drawn) | inactive: > 100 µM
97 | NNC(=O)C(=O)N/N=C(\CCC(=O)Nc1ccc(Cl)cc1)Cc1nc2ccccc2s1 | inactive: > 100 µM
98 | COc1ccc(C=O)c(NC(=O)C(C)C)c1 | inactive: 97.5 µM
